# B1: hu28-vc0101: hu28 conjugated to vc0101 linker-payload (conjugate)
# heavy: EVQLVESGGGLVQPGGSLRLSCAASGFTFRDYGMTWVRQAPGKGLEWVAYISSGSNYIYYAEAVKGRFTISRDNAKNSLYLQMNSLRAEDTAVYYCARRGPFVLDAWGQGTLVTVSS[letters of human IgG1 constant region omitted]
# light: DIQMTQSPSSLSASVGDRVTITCKASQSINRYLHWYQQKPGKAPKLLIYNANGLQTGVPSRFSGSGSGTDFTLTISSLQPEDFATYYCLQHNTWPDTFGGGTKVEIKRTVAAPSVFIFPPSDEQLKSGTASVVCLLNNFYPREAKVQWKVDNALQSGNSQESVTEQDSKDSTYSLSSTLTLSKADYEKHKVYACEVTHQGLSSPVTKSFNRGEC
# Experiments:
# [1] = tested on: phospho-Histone H3 (pHH3) stained nuclei in MDA-MB-468 breast xenografts; assay: pHH3 immunohistochemistry in ADC treated MDA-MB-468 xenografts; type: in vivo, mouse
# Protocol: The MDA-MB-468 breast cancer model was used to examine the in vivo mechanism of action of hu28-vc0101. The pharmacodynamics of hu28-vc0101 was visualized at the cellular level by staining with the mitotic marker phospho-Histone H3 in ADC treated xenografts. Histone H3 is phosphorylated on Ser-10 residues (hereinafter “pHH3”) within chromatin during the mitotic phase of the cell cycle.
# Mice bearing MDA-MB-468 breast xenografts were given a single 3 mg/kg dose intravenously with anti-Notch3 ADC hu28-vc0101, huNeg-8.8-vc0101 (control ADC) or PBS. Three xenografts were harvested after 6, 24 and 96 hours and processed for standard immunohistochemistry. Five micrometer thick formalin fixed, paraffin embedded tissue sections were deparaffinized in xylene substitute, rehydrated with graded alcohols to distilled water. To expose antigenic sites, tissue sections were heated in 10 mM citrate buffer pH 6.0 (Labvision) in a pressure cooker (Retriever; Electron Microscopy Sciences) and cooled to room temperature. Endogenous peroxidase activity was inactivated with 3% hydrogen peroxide for 15 min. […] Tissue sections were incubated with anti-pHH3 antibody for one hour, detected with Signalstain Boost Reagent (8114, Cell Signaling Technologies) for 30 minutes and color was developed with DAB+ (DAKO) for 5 minutes. […]
# Immunohistochemically stained slides were evaluated by image analysis. […] Once digitized, the virtual slides were analyzed using Definiens Tissue Studio software. […] Individual nuclei were identified within the viable regions of the xenograft and the positivity was determined using the average brown chromogen intensity of each nuclei. Data is presented as percent (%) pHH3 positivity which is calculated using the following equation: (Number of pHH3 positive nuclei (viable region)/Total number of nuclei (viable region))*100. Determination of statistical significance was determined for each treatment group and time point compared to PBS control at 24 hour time point with Graph Pad Prism using a 2 tailed T test.
# [2] = tested on: caspase-3/7 activity in MDA-MB-468/hNotch3; assay: Caspase-Glo 3/7 apoptosis assay, MDA-MB-468/hNotch3; type: cell-based, human
# Protocol: Caspase-3 and caspase-7 (caspase-3/7) proteases are key members of the programmed cell death machinery responsible for mediating late apoptotic events in mammalian cells. The activity of caspase-3/7 was measured in Notch3 expressing cell lines that were treated with Notch3-ADCs.
# OVCAR3, HCC2429 and MDA-MB-468/hNotch3 cells were seeded onto opaque white tissue culture plates and incubated overnight. OVCAR3 and HCC2429 were treated at 1.1 μg/ml and MDA-MB-468/hNotch3 cells were treated 1 μg/ml of hu28-vc0101 and huNeg8.8-vc010 (control ADC). After 48 hours incubation, cells were treated with the Caspase-Glo 3/7 reagent (Promega #G8090) for 2 hours at room temperature. Luminescence was measured with a luminometer and following subtraction of background, values were reported as relative luminescence units.
molecule,measurement,setting,value
B1,% pHH3,[1]; 6 hr after single 3 mg/kg iv dose,2.54%
same,% pHH3,[1]; 24 hr after single 3 mg/kg iv dose,5.37%
same,% pHH3,[1]; 96 hr after single 3 mg/kg iv dose,5.19%
same,Relative luminescence units (caspase-3/7),"[2]; 1 μg/ml, 48 hours","78,622 ± 1160"
same,induction of caspase-3/7 activity over control Neg8.8-vc0101 treated cells,"[2]; across MDA-MB-468/hNotch3, HCC2429 and OVCAR3 cells",2-3 fold

# — patent publication US9433687B2, “Anti-Notch3 antibodies and antibody-drug conjugates” (Pfizer Inc., priority 2012, dated 2016)
